Data taken from the supplement of paper PMC9446081.
In all, about 39,000 compounds went through this assay and about 220 (0.56%) showed activity. The list shows a part of the results.

System: Escherichia coli K-12 BW25113
Assay: relative growth (OD600 normalised to plate interquartile mean) (fraction); higher = less growth inhibition, active = 0.2 or less
Details: 50 µM; LB; incubation time: overnight (16-24 h)
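Note: static incubation at 37 °C against the wild-type strain, values averaged over two biological replicates.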

SMILES | relative growth
C[C@@H]1CN([C@@H](C)CO)C(=O)c2cc(NS(=O)(=O)c3cn(C)cn3)ccc2O[C@@H]1CN(C)C(=O)Nc1ccc2c(c1)OCO2 | inactive: 0.987
O=C(C[C@H]1CC[C@H]2[C@@H](COC[C@H](O)CN2S(=O)(=O)c2cccc(Cl)c2)O1)NCCCN1CCOCC1 | inactive: 0.976
C[C@H]1CN([C@@H](C)CO)C(=O)c2cc(NS(=O)(=O)c3cccs3)ccc2O[C@@H]1CN(C)Cc1ccncc1 | inactive: 0.977
O=C(C[C@@H]1CC[C@H]2[C@@H](COC[C@@H](O)CN2C(=O)Nc2ccc(Cl)c(Cl)c2)O1)NCc1ccc(Cl)c(Cl)c1 | inactive: 0.899
C[C@@H]1CCCCO[C@H](CN(C)S(=O)(=O)c2ccccc2)[C@@H](C)CN([C@@H](C)CO)C(=O)c2cc(NC(=O)C3CCCCC3)ccc2O1 | inactive: 0.995
C[C@@H]1CN([C@@H](C)CO)C(=O)Cc2cc(NS(=O)(=O)c3cccs3)ccc2O[C@H]1CN(C)S(=O)(=O)c1cccs1 | inactive: 1.01
Cc1noc(C)c1NC(=O)Nc1ccc2c(c1)C(=O)N([C@@H](C)CO)C[C@H](C)[C@@H](CN(C)S(=O)(=O)c1ccccc1)O2 | inactive: 0.987
COc1ccc(C(=O)NCC(=O)O)cc1 | inactive: 0.987
COc1ccccc1S(=O)(=O)N[C@@H]1C=C[C@H](CC(=O)N2CCOCC2)O[C@H]1CO | inactive: 0.995
C[C@H](CO)N1C[C@H](C)[C@H](CN(C)S(=O)(=O)c2ccc(F)cc2)Oc2ccc(NC(=O)CCCN(C)C)cc2C1=O | inactive: 0.998
C[C@@H]1CN([C@H](C)CO)C(=O)Cc2cc(NC(=O)CCC(F)(F)F)ccc2O[C@H]1CN(C)Cc1ccc(C(=O)Nc2ccccc2N)cc1 | inactive: 0.982
CO[C@H](CN(C)S(=O)(=O)c1cccc(Cl)c1)[C@@H](C)CN([C@@H](C)CO)S(=O)(=O)c1ccc(Cl)cc1 | inactive: 1.03
O=C(C[C@@H]1CC[C@@H](NC(=O)Nc2ccc3c(c2)OCO3)[C@H](CO)O1)NCCCN1CCOCC1 | inactive: 0.985
CO[C@H]1CN(C)C(=O)c2ccc(NS(=O)(=O)CC(F)(F)F)cc2OC[C@H](C)N(Cc2cccnc2)C[C@@H]1C | inactive: 1.02
C[C@@H]1CCCCO[C@H](CN(C)Cc2ccccc2)[C@@H](C)CN([C@H](C)CO)C(=O)c2cc(NC(=O)c3ccccc3)ccc2O1 | inactive: 1.02
COCn1c(=O)[nH]c2ccccc21 | inactive: 0.968
Cc1nccn1-c1cccc(CN)c1 | inactive: 1.01
CO[C@@H]1CN(C)C(=O)c2ccc(NC(=O)c3ccc(F)cc3)cc2OC[C@H](C)N(C(=O)CN(C)C)C[C@H]1C | inactive: 1
